In PubChem BioAssay AID1508623 (National Center for Advancing Translational Sciences (NCATS), 2021):
In all, about 48,000 compounds went through this assay and about 450 (0.94%) were called active. Inconclusive results (about 19%) are left out. Calls follow the shape of the dose curve; as a rule, active = well fitted inhibition curve with a large enough effect; inconclusive = small, poorly fitted or top-dose-only effect; inactive = no such curve, though single readings can be large or run the other way. The list shows a part of the results.

experiment: Primary qHTS for Identification of Small Molecule Inhibitors of Huntingtin Promoter Activity; conditions: HEK293 HTT promoter firefly luciferase reporter (activity 0% = vehicle and -100% = no light), 24 h; series mostly up to 57.5 µM; activity change, negative = inhibition: at the top concentration; also: nearly all actives have a fitted effect of over 50% in size
Outline: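 HEK293 cells carrying firefly luciferase reporters were seeded at 2,500 per well in Opti-MEM and cultured for 24 h. They were then treated with compounds at up to 57.5 uM final for 24 h at 37 degrees C before Dual-Glo luminescence readout.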

Activity change, negative = inhibition, inactive:
C[C@]12CCC(=O)C=C1CC[C@@H]1[C@@H]2[C@@H](O)C[C@@]2(C)[C@H]1CC[C@]2(O)C(=O)CO 4.03%
COc1ccc(NC(=O)Cn2c3ncccc3c(=O)n2-c2ccc(C)c(C)c2)c(OC)c1 -1.97%
CCOCCCNC(=O)C(c1ccc(OC)cc1)N(Cc1ccc2c(c1)OCO2)C(=O)c1ccc(NC(C)=O)cc1 (stereo not given) -15.4%
CCCCc1nn2c(=O)cc(COC(=O)c3ccc(NC(=O)c4ccccc4Cl)cc3)nc2s1 17.4%
Cc1nnc(NC(=O)CSc2nc3c([nH]c4ccccc43)c(=O)n2-c2ccc(Cl)cc2)s1 -21.2%
Cc1ccc2[nH]c(=O)c3cc(C(=O)N(C)c4ccc(Br)cc4)sc3c2c1 -23%
CC(=O)Nc1cc(C(=O)NCc2ccccc2Cl)ccc1Sc1ccc(F)cc1 -17.8%
Cc1cc(C)cc(NC(=O)c2cc(S(=O)(=O)NCCC3=CCCCC3)ccc2F)c1 -14.3%
Cc1ccc(NC(=O)c2cc(S(=O)(=O)N3CCCCC3)c[nH]2)cc1N(C)C 7.02%
Cc1cccc(C(=O)Nc2ccc3oc(-c4cccc5c(Br)cccc45)nc3c2)c1 -10.9%
CCOc1ccc2nc(N3CCN(C(=O)c4ccc5c(c4)CCCC5)CC3)sc2c1 -26.6%
COc1ccc2c(c1)CC(C(=O)NCc1ccc(F)cc1)CO2 (stereo not given) -14.5%
Cc1cc(OCC(=O)Nc2ccc(C(=O)OC3CCCCC3)cc2)cc(C)c1Cl -12.2%
COc1ccc(CCNCc2c(C(=O)O)c(C)n(Cc3c(F)cccc3Cl)c2C)cc1OC -11.5%
Cc1ccc2c(c1)C(=O)OC(C(=O)Nc1ncc(Cc3ccccc3Cl)s1)C2 (stereo not given) -6.9%
Cc1ccc(-c2cc(-c3ccc4c(c3)NC(=O)CO4)nc3c2COc2ccccc2-3)cc1 -3.41%
COc1ccc2c(c1)c1c(c(=O)n(-c3ccc(F)c(Cl)c3)c(=O)n1Cc1cccc(C)c1)n2C 5.55%
CCOc1ccc2c(c1)c(=O)c(C(=O)c1ccccc1)cn2Cc1ccccc1 -23.3%
Cc1ccc(C(=O)Nc2c(C(=O)NC(C)(C)C)oc3ccccc23)cc1 -13.8%
CCOC(=O)c1ccc(NC(=O)CSc2c(C(C)C)cnc3c2c(=O)n(C)c(=O)n3C)cc1 -9.02%
Cc1cc(C)c2c(CC(=O)Nc3ccc(F)cc3)coc2c1 -28%
Cc1ccc(-n2nc(C)c3nc(CCC(=O)Nc4cccc(C)c4C)c(=O)n(C)c32)cc1 -13.4%
COc1ccc(CNC(=O)Cn2nc3c(cc2=O)CCCC3)cc1 2.36%
Cc1cccc(N2C(=O)N(Cc3cc(=O)n4ccccc4n3)c3ccccc3S2(=O)=O)c1 -15.3%
COC(=O)c1nc2n(n1)C(c1cccc(Cl)c1)C(C(=O)Nc1ccccc1OC)=C(C)N2 (stereo not given) -9.43%
Cc1c2cnn(-c3ccccc3)c(=O)c2c(C)n1CCCC(=O)Nc1cc(F)ccc1F -8.33%
Cc1cccc(C)c1NC(=O)C(NS(=O)(=O)c1ccc2c(c1)CCC(=O)N2)c1ccccc1 (stereo not given) -9.77%
O=C(CSc1nc2ccccc2nc1Cc1ccc(Cl)cc1)N1CCc2ccccc21 2.45%
Cc1ccc(-c2nc(C)c(CCNC(=O)c3ccco3)s2)cc1 9.7%
CCc1ccc(CNC(=O)CN2C(=O)c3cccnc3Oc3ccc(Cl)cc32)cc1 -6.81%
CCN(c1cccc(C)c1)S(=O)(=O)c1nnc(NC(=O)C2CCCCC2)s1 -5.27%
COc1ccc(-c2nc3sc(CCNC(=O)c4cc(OC)c(OC)c(OC)c4)c(C)n3n2)cc1 12.3%
CCOc1ccc(NC(=O)CSc2ncc3c(n2)-c2ccc(Cl)cc2N(Cc2ccccc2)S3(=O)=O)cc1 -11.6%
COc1ccc(C)cc1NC(=O)c1oc2ccc(S(=O)(=O)N3CCCCC3)cc2c1C -7.89%
Cc1ccc(C)c(N2CCN(S(=O)(=O)c3cc(Br)cc4c3N(C(=O)C3CC3)CC4)CC2)c1 -4.31%
CCOc1ccc(C2c3[nH]c4ccccc4c3CCN2C(=O)CCc2ccccc2)cc1 (stereo not given) -18.5%
Clc1ccc2c(c1)Nc1ccccc1S2 0.553%
O=C(C1CCN(S(=O)(=O)c2ccc(Br)s2)CC1)N1CCN(c2cccc(Cl)c2)CC1 -24.9%
COc1cc(C(=O)NCCCc2nc3ccccc3n2CC(C)C)cc(OC)c1OC -2.3%
Cc1ccc(Sc2c(C)nn(C(=O)COc3ccccc3Br)c2C)cc1 -21.1%
CCOc1ccc(CCNC(=O)c2sc3nc4n(c(=O)c3c2C)CCCC4)cc1OCC -10.1%
CCOC(=O)c1ccc(NC(=O)CCn2c(=O)c3cccn3c3ccccc32)cc1 0.499%
Cc1ccc2[nH]c(CSc3nnc(NC(=O)COc4ccccc4)s3)cc(=O)c2c1 -11.9%
NC(=O)c1c(NC(=O)c2nc(SCc3ccccc3F)ncc2Cl)sc2c1CCCC2 -5.54%
CCOC(=O)c1sc2ncn(CC(=O)Nc3ccc(N(C)C)cc3)c(=O)c2c1C -8.81%
O=C(Nc1nc2ccc(S(=O)(=O)N3CCCC3)cc2s1)c1cccc(F)c1 -9.28%
COc1ccc(OC)c(CNC(=O)c2nn(-c3ccc(OC)c(Cl)c3)c(=O)c3c2c2ccccc2n3C)c1 0.811%
CCCCn1cc(S(=O)(=O)c2ccc(C)c(C)c2)c(=O)c2cc(F)c(N3CCCC(C)C3)cc21 (stereo not given) 2.24%
CCOc1ccc2nc(N3CCCC(C(=O)Nc4c(C)cccc4C)C3)sc2c1 (stereo not given) 53.9%
COc1ccc(CCNC(=O)CCCn2c(=O)c3ccccc3n(Cc3cccc(Cl)c3)c2=O)cc1OC -30.3%
Nc1nc2ccccc2n1Cc1ccc(F)cc1 -15.7%
COc1ccc(S(=O)(=O)n2nc(C)c(S(=O)(=O)N3CCC(C)CC3)c2C)cc1C 4.47%
CCC(=O)Nc1c(C(=O)N2CCN(c3ccc(F)cc3)CC2)oc2ccccc12 -33.6%
Cc1cccc(C)c1NC(=O)CSc1nc(-c2ccccc2)nc2c1Cc1c(CO)cnc(C)c1O2 -14.9%
O=C1NCCN(Cc2ccc(F)cc2)C1=O -9.56%
COc1ccc(NC(=O)Cn2nnc(C(=O)Nc3ccc(F)c(Cl)c3)c2N)cc1OC -7.14%
Cc1ccc(NC(=O)Cn2cc(C(=O)C3CC3)c3ccccc32)cc1 -4.11%
COC(=O)c1scc(-c2ccc(C)cc2)c1S(=O)(=O)Nc1cc(Cl)ccc1C -31.3%
Cn1c(=O)c(=O)n(C)c2cc(N3CCOCC3)c(NS(=O)(=O)c3ccc(Cl)cc3)cc21 -0.838%
CCc1ccc(S(=O)(=O)c2cn(CC(=O)Nc3ccc(C)cc3)c3ccccc3c2=O)cc1 -22.6%
